The list shows a part of the results.
Tests used:
Experiment in all cases: glycan array binding signal (z-score within array); higher = stronger binding
Conditions in all cases: glycan notation: IUPAC condensed, linker removed
Gal(a1-6)Glc = target: Gal(a1-6)Glc
How it was run: (§1)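 Glycan array data came from 3228 arrays in the Consortium for Functional Glycomics database, and only arrays with an available protein sequence were kept. Glycan names were put into IUPAC-condensed notation, and columns mapping to the same glycan were averaged. The binding signal is a within-array Z-score, averaged across arrays of one protein sequence run at different concentrations or buffers and across linkers. A negative Z-score can be read as non-binding.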

Gal(b1-2)Gal = target: Gal(b1-2)Gal
How it was run: as §1

Gal(b1-3)Gal = target: Gal(b1-3)Gal
How it was run: as §1

Gal(b1-3)Gal(b1-4)GlcNAc = target: Gal(b1-3)Gal(b1-4)GlcNAc
How it was run: as §1

Gal(b1-3)GalNAc = target: Gal(b1-3)GalNAc
How it was run: as §1

[1] = target: Gal(b1-3)GalNAc(a1-3)[Fuc(a1-2)]Gal(b1-4)Glc
How it was run: as §1

[2] = target: Gal(b1-3)GalNAc(a1-3)[Fuc(a1-2)]Gal(b1-4)GlcNAc
How it was run: as §1

Gal(b1-3)GalNAc(b1-3)Gal = target: Gal(b1-3)GalNAc(b1-3)Gal
How it was run: as §1

[3] = target: Gal(b1-3)GalNAc(b1-3)Gal(a1-4)Gal(b1-4)Glc
How it was run: as §1

[4] = target: Gal(b1-3)GalNAc(b1-4)Gal(b1-4)Glc
How it was run: as §1

[5] = target: Gal(b1-3)GalNAc(b1-4)[Neu5Ac(a2-3)]Gal(b1-4)Glc
How it was run: as §1

Gal(b1-3)GlcNAc = target: Gal(b1-3)GlcNAc
How it was run: as §1

[6] = target: Gal(b1-3)GlcNAc(a1-3)Gal(b1-4)GlcNAc
How it was run: as §1

[7] = target: Gal(b1-3)GlcNAc(a1-6)Gal(b1-4)GlcNAc
How it was run: as §1

Gal(b1-3)GlcNAc(b1-2)Man = target: Gal(b1-3)GlcNAc(b1-2)Man
How it was run: as §1

[8] = target: Gal(b1-3)GlcNAc(b1-2)Man(a1-3)[Gal(b1-3)GlcNAc(b1-2)Man(a1-6)]Man(b1-4)GlcNAc(b1-4)GlcNAc
How it was run: as §1

[9] = target: Gal(b1-3)GlcNAc(b1-2)Man(a1-3)[Gal(b1-3)GlcNAc(b1-2)Man(a1-6)]Man(b1-4)GlcNAc(b1-4)[Fuc(a1-6)]GlcNAc
How it was run: as §1

[10] = target: Gal(b1-3)GlcNAc(b1-2)Man(a1-3)[GlcNAc(b1-4)][Gal(b1-3)GlcNAc(b1-2)Man(a1-6)]Man(b1-4)GlcNAc(b1-4)GlcNAc
How it was run: as §1

[11] = target: Gal(b1-3)GlcNAc(b1-2)[Gal(b1-3)GlcNAc(b1-6)]Man(a1-6)[Gal(b1-3)GlcNAc(b1-2)Man(a1-3)]Man(b1-4)GlcNAc(b1-4)GlcNAc
How it was run: as §1

[12] = target: Gal(b1-3)GlcNAc(b1-3)Gal(b1-3)GlcNAc
How it was run: as §1

[13] = target: Gal(b1-3)GlcNAc(b1-3)Gal(b1-4)Glc
How it was run: as §1

[14] = target: Gal(b1-3)GlcNAc(b1-3)Gal(b1-4)GlcNAc
How it was run: as §1

[15] = target: Gal(b1-3)GlcNAc(b1-3)Gal(b1-4)GlcNAc(b1-2)Man(a1-3)[Gal(b1-3)GlcNAc(b1-3)Gal(b1-4)GlcNAc(b1-2)Man(a1-6)]Man(b1-4)GlcNAc(b1-4)GlcNAc
How it was run: as §1

[16] = target: Gal(b1-3)GlcNAc(b1-3)Gal(b1-4)GlcNAc(b1-2)[Gal(b1-3)GlcNAc(b1-3)Gal(b1-4)GlcNAc(b1-6)]Man(a1-6)[Gal(b1-3)GlcNAc(b1-3)Gal(b1-4)GlcNAc(b1-2)Man(a1-3)]Man(b1-4)GlcNAc(b1-4)[Fuc(a1-6)]GlcNAc
How it was run: as §1

[17] = target: Gal(b1-3)GlcNAc(b1-3)Gal(b1-4)GlcNAc(b1-3)Gal(b1-4)GlcNAc(b1-2)[Gal(b1-3)GlcNAc(b1-3)Gal(b1-4)GlcNAc(b1-3)Gal(b1-4)GlcNAc(b1-6)]Man(a1-6)[Gal(b1-3)GlcNAc(b1-3)Gal(b1-4)GlcNAc(b1-3)Gal(b1-4)GlcNAc(b1-2)Man(a1-3)]Man(b1-4)GlcNAc(b1-4)[Fuc(a1-6)]GlcNAc
How it was run: as §1

[18] = target: Gal(b1-3)GlcNAc(b1-3)Gal(b1-4)GlcNAc(b1-6)[Gal(b1-3)GlcNAc(b1-3)]Gal(b1-4)Glc
How it was run: as §1

[19] = target: Gal(b1-3)GlcNAc(b1-3)Gal(b1-4)[Fuc(a1-3)]GlcNAc
How it was run: as §1

[20] = target: Gal(b1-3)GlcNAc(b1-3)Gal(b1-4)[Fuc(a1-3)]GlcNAc(b1-6)[Gal(b1-3)GlcNAc(b1-3)]Gal(b1-4)Glc
How it was run: as §1

[21] = target: Gal(b1-3)GlcNAc(b1-3)GalNAc
How it was run: as §1

[22] = target: Gal(b1-3)GlcNAc(b1-6)Gal(b1-4)GlcNAc
How it was run: as §1

[23] = target: Gal(b1-3)GlcNAc(b1-6)GalNAc
How it was run: as §1

[24] = target: Gal(b1-3)GlcNAc(b1-6)[Gal(b1-3)]GalNAc
How it was run: as §1

Gal(b1-3)GlcNAc6S = target: Gal(b1-3)GlcNAc6S
How it was run: as §1

[25] = target: Gal(b1-3)[Fuc(a1-4)]GlcNAc
How it was run: as §1

[26] = target: Gal(b1-3)[Fuc(a1-4)]GlcNAc(b1-2)Man
How it was run: as §1

[27] = target: Gal(b1-3)[Fuc(a1-4)]GlcNAc(b1-2)Man(a1-3)[Gal(b1-3)[Fuc(a1-4)]GlcNAc(b1-2)Man(a1-6)]Man(b1-4)GlcNAc(b1-4)[Fuc(a1-6)]GlcNAc
How it was run: as §1

[28] = target: Gal(b1-3)[Fuc(a1-4)]GlcNAc(b1-3)Gal(b1-3)[Fuc(a1-4)]GlcNAc
How it was run: as §1

[29] = target: Gal(b1-3)[Fuc(a1-4)]GlcNAc(b1-3)Gal(b1-4)[Fuc(a1-3)]GlcNAc
How it was run: as §1

[30] = target: Gal(b1-3)[Fuc(a1-4)]GlcNAc(b1-6)GalNAc
How it was run: as §1

[31] = target: Gal(b1-3)[GlcNAc(b1-6)]GalNAc
How it was run: as §1

[32] = target: Gal(b1-3)[Neu5Ac(a2-6)]GalNAc
How it was run: as §1

[33] = target: Gal(b1-3)[Neu5Ac(a2-6)]GlcNAc(b1-4)Gal(b1-4)Glc
How it was run: as §1

[34] = target: Gal(b1-3)[Neu5Ac(b2-6)]GalNAc
How it was run: as §1

Gal(b1-4)Gal = target: Gal(b1-4)Gal
How it was run: as §1

[35] = target: Gal(b1-4)GalNAc(a1-3)[Fuc(a1-2)]Gal(b1-4)GlcNAc
How it was run: as §1

B1: DrGal3 (Danio rerio) (protein)
chain: MDLSDALDAPPQQNNQQAGGPVWPGQPANPVWPGQPANPTWPGQPNQPAWPGQPNQQWPGQPGQPTAPGWPGPAPQTGPYGAPGQAPQVLTVPLDFPLQNGAYNKMLITINGEVKPNAKQFTVNLRRGNDIAFHINPRFSEGGKPVIVRNSMIGNNWGREERELPSFPFVPGKPFEMKILITDTEYKVAVNKSHLLEFKHRVFELNQITGLSIYNDVTLSTVNVETLQ
With B1 the “glycan array binding signal (z-score)” value (Gal(a1-6)Glc) was -0.264, the “glycan array binding signal (z-score)” value (Gal(b1-2)Gal) was -0.217 and the “glycan array binding signal (z-score)” value (Gal(b1-3)Gal) was -0.255. For the same binder, the “glycan array binding signal (z-score)” value (Gal(b1-3)Gal(b1-4)GlcNAc) was -0.238, the “glycan array binding signal (z-score)” value (Gal(b1-3)GalNAc) was -0.219 and the “glycan array binding signal (z-score)” value [1] was -0.229. For the same binder, the “glycan array binding signal (z-score)” value [2] was 0.049, the “glycan array binding signal (z-score)” value (Gal(b1-3)GalNAc(b1-3)Gal) was -0.183 and the “glycan array binding signal (z-score)” value [3] was -0.255. The “glycan array binding signal (z-score)” value [4] was -0.151, the “glycan array binding signal (z-score)” value [5] was -0.241 and the “glycan array binding signal (z-score)” value (Gal(b1-3)GlcNAc) was -0.234. For the same binder, the “glycan array binding signal (z-score)” value [6] was -0.214, the “glycan array binding signal (z-score)” value [7] was -0.234 and the “glycan array binding signal (z-score)” value (Gal(b1-3)GlcNAc(b1-2)Man) was -0.19. The “glycan array binding signal (z-score)” value [8] was -0.227, the “glycan array binding signal (z-score)” value [9] was -0.264 and the “glycan array binding signal (z-score)” value [10] was -0.206. For the same binder, the “glycan array binding signal (z-score)” value [11] was -0.233, the “glycan array binding signal (z-score)” value [12] was -0.209 and the “glycan array binding signal (z-score)” value [13] was 0.006. The “glycan array binding signal (z-score)” value [14] was -0.23, the “glycan array binding signal (z-score)” value [15] was -0.138 and the “glycan array binding signal (z-score)” value [16] was -0.136. The “glycan array binding signal (z-score)” value [17] was 0.998, the “glycan array binding signal (z-score)” value [18] was -0.233 and the “glycan array binding signal (z-score)” value [19] was -0.222. The “glycan array binding signal (z-score)” value [20] was -0.243, the “glycan array binding signal (z-score)” value [21] was -0.22 and the “glycan array binding signal (z-score)” value [22] was -0.282. The “glycan array binding signal (z-score)” value [23] was -0.277, the “glycan array binding signal (z-score)” value [24] was -0.179 and the “glycan array binding signal (z-score)” value (Gal(b1-3)GlcNAc6S) was -0.29. For the same binder, the “glycan array binding signal (z-score)” value [25] was -0.222, the “glycan array binding signal (z-score)” value [26] was -0.213 and the “glycan array binding signal (z-score)” value [27] was -0.223. The “glycan array binding signal (z-score)” value [28] was -0.24, the “glycan array binding signal (z-score)” value [29] was -0.271 and the “glycan array binding signal (z-score)” value [30] was -0.208. For the same binder, the “glycan array binding signal (z-score)” value [31] was -0.231, the “glycan array binding signal (z-score)” value [32] was -0.245 and the “glycan array binding signal (z-score)” value [33] was -0.236. For the same binder, the “glycan array binding signal (z-score)” value [34] was -0.248, the “glycan array binding signal (z-score)” value (Gal(b1-4)Gal) was -0.192 and the “glycan array binding signal (z-score)” value [35] was -0.176.
